The other results are listed elsewhere or left out. Values come from read counts of a selection and are noisy. Each score is taken over the longer molecules that contain the sequence shown.
Tests used:
Experiment in all cases: 6-mer SELEX enrichment z-score vs GST control; IMP3 is the RNA-binding protein IGF2BP3; higher = more enriched by binding
IMP3 KH1-4 = conditions: construct: KH1-4 (164-579); SELEX round: R4
Method: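 SELEX-seq with GST-tagged IMP3 KH1-4 (Pro164-Lys579) and an N40 RNA pool, round 4. 6-mer z-score of sequence-tag enrichment normalised to the corresponding GST SELEX round; RNA k-mers written as DNA (T for U).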

IMP3 RRM1-2 = conditions: construct: RRM1-2 (1-163); SELEX round: R2
Method: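 SELEX-seq with GST-tagged IMP3 RRM1-2 (Met1-Asn163) and an N40 RNA pool, round 2. 6-mer enrichment z-score normalised to GST SELEX. RNA written as DNA (T = U).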

IMP3 full-length = IMP3 full-length (UniProt O00425); conditions: construct: FL IMP3 (1-579); SELEX round: R4
Method: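 SELEX-seq with GST-tagged full-length IMP3 and an N40 RNA pool, round 4. Each 6-mer is scored as an enrichment z-score of sequence tags containing it, normalised to the matching GST SELEX round. RNA written as DNA (T = U).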

IMP3 KH1-2 = conditions: construct: KH1-2 (164-376); SELEX round: R4
Method: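 SELEX-seq with GST-tagged IMP3 KH1-2 (Pro164-Phe376) and an N40 RNA pool, round 4 (stringent 300/600 mM KCl washes). 6-mer z-score of sequence-tag enrichment normalised to the corresponding GST SELEX round; RNA k-mers written as DNA (T for U).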

IMP3 KH3-4 = conditions: construct: KH3-4 (377-579); SELEX round: R4
Method: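 SELEX-seq with GST-tagged IMP3 KH3-4 (Pro377-Lys579) and an N40 RNA pool, round 4. 6-mer z-score of sequence-tag enrichment normalised to the corresponding GST SELEX round; RNA k-mers written as DNA (T for U).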

UniProt O00425, sequence (O00425 whole entry): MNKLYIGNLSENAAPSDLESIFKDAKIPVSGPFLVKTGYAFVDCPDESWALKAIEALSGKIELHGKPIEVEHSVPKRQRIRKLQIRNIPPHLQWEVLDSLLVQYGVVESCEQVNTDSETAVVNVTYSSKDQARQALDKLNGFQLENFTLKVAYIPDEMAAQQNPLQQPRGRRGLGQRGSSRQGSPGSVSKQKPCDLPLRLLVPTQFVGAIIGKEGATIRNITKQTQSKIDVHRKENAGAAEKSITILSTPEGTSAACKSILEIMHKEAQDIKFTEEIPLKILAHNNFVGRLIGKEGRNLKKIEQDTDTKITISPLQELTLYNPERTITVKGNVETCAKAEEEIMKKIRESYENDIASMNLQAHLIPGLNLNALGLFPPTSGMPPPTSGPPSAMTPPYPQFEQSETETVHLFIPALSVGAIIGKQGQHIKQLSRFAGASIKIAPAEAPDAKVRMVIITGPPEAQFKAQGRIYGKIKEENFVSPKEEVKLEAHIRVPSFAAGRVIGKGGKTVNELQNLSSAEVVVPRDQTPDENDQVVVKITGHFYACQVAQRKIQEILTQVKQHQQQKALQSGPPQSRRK
IMP3 KH1-2, sequence (chain, as listed by the source): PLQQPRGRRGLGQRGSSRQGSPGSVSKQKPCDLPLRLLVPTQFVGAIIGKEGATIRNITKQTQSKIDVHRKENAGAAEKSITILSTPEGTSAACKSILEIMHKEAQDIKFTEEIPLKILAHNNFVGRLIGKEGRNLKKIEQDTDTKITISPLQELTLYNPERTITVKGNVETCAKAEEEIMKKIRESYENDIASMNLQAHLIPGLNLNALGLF
IMP3 RRM1-2, sequence (chain, as listed by the source): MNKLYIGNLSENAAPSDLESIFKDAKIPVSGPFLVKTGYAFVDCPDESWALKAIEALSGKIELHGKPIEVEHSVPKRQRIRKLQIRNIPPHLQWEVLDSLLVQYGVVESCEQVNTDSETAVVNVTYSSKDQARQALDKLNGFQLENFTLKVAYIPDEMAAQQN
IMP3 KH1-4, sequence (chain, as listed by the source): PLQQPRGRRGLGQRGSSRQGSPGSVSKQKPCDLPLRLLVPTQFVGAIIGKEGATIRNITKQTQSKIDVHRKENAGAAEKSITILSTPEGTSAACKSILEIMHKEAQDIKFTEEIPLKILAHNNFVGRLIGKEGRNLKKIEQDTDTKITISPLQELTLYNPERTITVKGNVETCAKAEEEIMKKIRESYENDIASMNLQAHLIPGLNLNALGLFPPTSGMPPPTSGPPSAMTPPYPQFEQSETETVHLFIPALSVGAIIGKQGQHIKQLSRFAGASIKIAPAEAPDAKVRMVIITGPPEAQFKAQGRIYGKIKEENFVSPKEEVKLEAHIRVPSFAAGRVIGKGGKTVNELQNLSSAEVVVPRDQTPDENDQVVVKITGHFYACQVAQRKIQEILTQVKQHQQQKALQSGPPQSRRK
IMP3 KH3-4, sequence (chain, as listed by the source): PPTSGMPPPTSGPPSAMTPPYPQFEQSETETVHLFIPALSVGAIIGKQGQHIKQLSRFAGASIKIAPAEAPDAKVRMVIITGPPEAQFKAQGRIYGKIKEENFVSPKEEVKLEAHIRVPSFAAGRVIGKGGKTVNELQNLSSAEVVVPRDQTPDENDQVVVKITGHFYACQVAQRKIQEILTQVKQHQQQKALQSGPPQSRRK

| Sequence | 6-mer SELEX enrichment z-score (IMP3 KH1-4) | 6-mer SELEX enrichment z-score (IMP3 RRM1-2) | 6-mer SELEX enrichment z-score (IMP3 full-length) | 6-mer SELEX enrichment z-score (IMP3 KH1-2) | 6-mer SELEX enrichment z-score (IMP3 KH3-4) |
| --- | --- | --- | --- | --- | --- |
| CACTTT | 1.34 | 0.588 | 0.559 | 1.32 | 0.931 |
| CCATCA | 0.788 | 2.86 | 2.43 | 0.861 | 0.015 |
| CTCTAC | -0.191 | 0.112 | -0.28 | -0.163 | -0.393 |
| ATCAGA | 0.601 | 1.36 | 1.33 | 0.611 | 0.691 |
| CCTACC | -1.35 | -0.72 | -1.38 | -1.24 | -1.71 |
| CTCTTT | 0.489 | 0.415 | 0.197 | 0.606 | 0.486 |
| GTATCA | -0.371 | 0.484 | 0.185 | -0.368 | -0.304 |
| GACAGT | 0.486 | -0.216 | 0.384 | 0.257 | 0.117 |
| TGTCTC | -0.267 | 0.618 | 0.339 | -0.098 | -0.048 |
| TCACTC | 0.234 | 1.38 | 0.542 | 0.232 | -0.177 |
| TTATTC | 1.11 | 0.407 | 0.37 | 1.04 | 1.16 |
| TGCATG | 0.896 | 0.256 | 0.48 | 0.575 | 0.637 |
| GGGCCA | -0.122 | 0.091 | 0.597 | 0.136 | -0.008 |
| TGTTCT | 0.399 | 0.369 | 0.118 | 0.314 | 0.39 |
| TAATTG | 0.602 | -0.114 | -0.158 | 0.412 | 1.09 |
| AATCGT | -0.427 | -0.316 | -0.438 | -0.572 | -0.402 |
| TGGATT | 0.477 | 0.172 | 0.002 | 0.311 | 0.586 |
| TATAGT | 0.75 | 0.273 | 0.216 | 0.513 | 0.849 |
| AGTATT | 0.149 | 0.145 | -0.054 | 0.073 | 0.37 |
| TCATAA | 1.37 | 1.36 | 1.53 | 1.6 | 1.44 |

| Sequence | 6-mer SELEX enrichment z-score (IMP3 KH1-4) | 6-mer SELEX enrichment z-score (IMP3 RRM1-2) | 6-mer SELEX enrichment z-score (IMP3 full-length) | 6-mer SELEX enrichment z-score (IMP3 KH1-2) | 6-mer SELEX enrichment z-score (IMP3 KH3-4) |
| --- | --- | --- | --- | --- | --- |
| AATTCT | 0.607 | 0.056 | 0.02 | 0.589 | 0.616 |
| GTTACG | 0.214 | 0.02 | -0.051 | 0.026 | 0.004 |
| CAGACT | -0.065 | -0.019 | -0.135 | 0.089 | -0.197 |
| GTCAGA | -0.084 | 0.03 | 0.241 | -0.12 | -0.067 |
| GAGATA | 0.419 | -0.757 | -0.274 | 0.296 | 0.8 |
| ACGAGG | -0.618 | -0.61 | -0.142 | -0.538 | -0.391 |
| TTAGGG | 0.371 | 0.353 | 0.229 | 0.379 | 0.65 |
| GTTCAT | 0.729 | 0.696 | 0.852 | 0.693 | 0.647 |
| ATGCGA | -0.594 | -0.494 | -0.429 | -0.7 | -0.501 |
| AAATTA | 1.08 | -0.945 | -0.574 | 1.13 | 2.51 |
| CAAGTG | -0.333 | -0.083 | -0.042 | -0.445 | -0.315 |
| CCAGAA | -0.604 | -1.03 | -0.924 | -0.694 | -0.781 |
| TATACC | -0.097 | -0.242 | -0.598 | -0.078 | -0.233 |
| TTACCC | -0.879 | -0.424 | -0.909 | -0.879 | -1.27 |
| TATACG | 1.07 | -0.18 | 0.04 | 0.8 | 1.03 |
| GAGTGA | -0.549 | -0.627 | -0.639 | -0.616 | -0.387 |
| TCGCCA | 0.661 | 0.124 | 0.574 | 0.454 | 0.094 |
| GGTCCA | 0.329 | 0.035 | 0.504 | 0.163 | 0.057 |
| TGCGAT | -0.095 | -0.231 | -0.095 | -0.137 | 0.015 |
| TGGAGC | -0.873 | -0.031 | -0.24 | -0.808 | -0.672 |

| Sequence | 6-mer SELEX enrichment z-score (IMP3 KH1-4) | 6-mer SELEX enrichment z-score (IMP3 RRM1-2) | 6-mer SELEX enrichment z-score (IMP3 full-length) | 6-mer SELEX enrichment z-score (IMP3 KH1-2) | 6-mer SELEX enrichment z-score (IMP3 KH3-4) |
| --- | --- | --- | --- | --- | --- |
| AAAAAA | -1.73 | -2.85 | -3.6 | -1.28 | 0.369 |
| GCATAT | 0.976 | 0.582 | 0.832 | 0.751 | 0.969 |
| ACATCT | 0.208 | 0.699 | 0.665 | 0.123 | -0.23 |
| TGTAAG | 0.278 | -0.165 | -0.248 | 0.114 | 0.491 |
| GAGCCC | -1.25 | -1.05 | -0.268 | -0.923 | -1.44 |
| TCATAC | 1.09 | 1.86 | 1.77 | 1.36 | 0.811 |
| AGCATT | 0.003 | 0.886 | 0.555 | -0.012 | 0.041 |
| TTTGCG | -0.397 | 0.235 | -0.312 | -0.321 | -0.158 |
| GGGTTA | 0.121 | 0.254 | 0.205 | 0.222 | 0.395 |
| AGTGAC | -0.248 | -0.309 | -0.32 | -0.385 | -0.368 |
| CGCTTC | -0.102 | 0.224 | 0.143 | 0.048 | -0.292 |
| CCCTGT | -0.243 | -0.348 | -0.426 | -0.237 | -0.624 |
| CTCTCA | 0.081 | 0.729 | 0.296 | 0.174 | -0.215 |
| AGGAGG | 1.24 | -0.128 | 0.58 | 1.23 | 1.07 |
| GACCGC | -0.369 | -0.841 | -0.285 | -0.202 | -0.952 |
| TAAAAC | -0.259 | -1.57 | -1.62 | -0.127 | 0.438 |
| AACGTA | -1.74 | -1.07 | -1.52 | -1.78 | -1.51 |
| TCGCCC | -0.267 | -0.193 | -0.284 | -0.251 | -0.834 |
| TGAGTA | -0.27 | -0.163 | -0.305 | -0.292 | -0.009 |
| ATGCCT | -0.487 | -0.219 | -0.567 | -0.416 | -0.528 |

Reference: the supplement of paper PMC6531468
